A structure can be active in one record and inactive in another.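 Method: cells in 96-well plates; compound added at one concentration; 48 h incubation; percent growth measured; values under 10 scored active.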 Certain results were filed several times, with different values. Only these are listed. The source may hold further records. The screen tested this drug many times, at the concentration stated with the values; each value is one run. Additions like (4×) count equal records among those shown.
Tests used:
HT29 colon = test: NCI-60 one-dose screen, 48 h (100 = growth as untreated, 0 = no growth, -100 = all killed); conditions: 25 µM
SNB-75 CNS = test: as above; conditions: 0.25 µM

Q: For `COc1cccc2c1C(=O)c1c(O)c3c(c(O)c1C2=O)C[C@@](O)(C(=O)CO)C[C@@H]3OC1CC(N)C(O)C(C)O1` (stereo not given in full), which growth (HT29 colon; runs of 1998) is on record?
A: Its growth is “active: 3.99, -1.93, 0.922, 3.8, -34.8, -22.2, -50, -55.2, -45.4, 4.8, -3.32, -60.6, 9.37, -13.7, -51.9, -30.9, -25.4, -7.2, -21.2, -22.4, -9.12% and inactive: 11.7%”.

Q: What about the growth (HT29 colon; runs of 1999) of the same compound?
A: The growth was “active: 1.96, -20, -42.4, 2.1, -35.9, -86.1, 0.711, -63.8, 0.123, -67.1, -42.5, 4.06, -2.58, -35.7, -81.3, -47.5, -6.61%”.

Q: And the growth (HT29 colon; runs of 2000)?
A: Its growth is “active: 0.0349, -100, -42.6, -7.29%”.

Q: And the growth (SNB-75 CNS; runs of 2006)?
A: The growth was “active: 9.24% and inactive: 33%”.

Q: What about the growth (SNB-75 CNS; runs of 2007) of the same compound?
A: The growth was “inactive: 20.2, 43.8, 13.1, 15, 46.2 (2×), 49.7, 26.4, 23.3, 39.9 (2×), 43.2, 13.8, 10.2, 21.7, 22.1, 39.4, 50.6, 38.5 (2×), 33.6, 33.7, 36.7, 18.1, 41.6 (2×), 51.8, 55.8 (2×), 52.6, 67.4, 45.2, 42.7, 67, 69.1, 26.9 (2×), 50, 31.8, 19.4, 32.1, 41.9% and active: -4.5%, 8.69%, 4.18%”.

Q: And the growth (SNB-75 CNS; runs of 2008)?
A: The growth was “inactive: 43.8, 37.6, 53.9, 13.8 (2×), 39, 36.6, 37.7, 44, 21.1, 38.7, 39.7, 43, 50.9, 47.4, 43.3 (2×), 37.3, 48.2, 34.4, 18, 17.3, 30.5, 10.8, 74.7, 17.2, 41.5, 17.8, 17.5, 18.8, 33.6 (2×), 22.9, 29.2, 20, 28.3, 49.2, 36.5, 12.1, 34.1, 23.5, 36, 19.8, 22.8% and active: -23.5, 1.73, 5.28, 0.797, -4.04, -7.62, -38.9, 5.27, -11.4, -14.4, -10.7, -20.6%”.

Q: And the growth (SNB-75 CNS; runs of 2009)?
A: Its growth is “inactive: 26.8, 31.4, 44, 39.6, 25.9, 29.2, 23.7 (2×), 38.7, 33.1 (2×), 32.1, 41.3, 35.7 (2×), 21.7, 32.9 (2×), 38.3, 37.8 (2×), 33.3, 25.7, 27.2, 26 (2×), 25, 24.6, 33.4, 15.2, 59.9, 36.1, 51.6, 40.2, 20.3, 17.1, 11.5, 22.8, 34.7, 40.8, 40.4, 44.5, 32.2, 25.2, 13.5, 19.7, 22.4, 22.2, 41.6, 35.6, 18.9, 11, 60.2, 38.6, 18.4, 46.4, 36, 44.8, 39.1, 50.1, 20.9, 24.3% and active: -2.03, -27.5, 8.03, 9.57%”.

Q: And the growth (SNB-75 CNS; runs of 2010)?
A: Its growth is “inactive: 34.4 (3×), 41.6, 28.6, 39.1 (2×), 39.6, 27.1, 21.2 (2×), 44.8, 35.9, 28.8, 35 (2×), 27.3, 37.6, 18.4, 20.1, 22.5, 23.9, 38.2, 13.8, 24.6, 19.2, 29.7 (2×), 16.6, 17.3, 21.7, 49.4, 10.5, 31.4 (2×), 24.8, 27.6 (2×), 25.6, 31.9, 19.4, 29.9, 39.3, 29.4, 37.3 (2×), 37.2, 40.4, 24.5, 36.8, 30.9% and active: 2.34%, 2.11%”.

Q: What about the growth (SNB-75 CNS; runs of 2011) of the same compound?
A: Its growth is “inactive: 41.6, 45, 38.1, 33, 27.2 (2×), 27.7, 43, 23.8, 61, 42.8, 29, 29.4, 29.7, 37.6, 31.4, 45.4 (2×), 33.5, 38.9, 47, 46.8, 42.4, 50.6, 41.3, 41, 44.8, 40.2, 41.7, 31.6, 46.2, 49.3, 34.7, 28.4, 36.1, 18.3, 36.7, 41.9 (2×), 37.4, 26.6, 20.6, 14.2, 18.5, 23.5, 42.6, 31.2 (2×), 23.9, 35.2, 29.9, 32.1, 39.7, 29.8, 37.5% and active: 4.23%”.

Q: What about the growth (SNB-75 CNS; runs of 2012) of the same compound?
A: The growth was “inactive: 34.7, 22.4, 29.9, 30.4, 37.4, 35, 38.5, 41.4 (2×), 31.1, 28.6, 27.1, 32.8, 32.9 (2×), 22.5, 24.7 (2×), 26.1, 20.3, 23.6, 40.8, 37 (2×), 33, 44.6, 41.3, 38.3 (2×), 18.2, 44, 44.1, 47.7, 39.5, 42.7, 35.1 (2×), 23.1, 36.2, 37.8, 29.6, 29.8, 29.1, 33.1, 39.2, 41.5, 44.7, 37.7, 49.9, 56.5, 43.7, 41, 45.4, 40.6, 54.2, 34.3, 24.1, 25.9, 22.3, 10.9, 37.2, 28.8, 18.3, 21.8, 21.4, 28.9% and active: 6.89%, -13.6%”.

Q: And the growth (SNB-75 CNS; runs of 2013)?
A: The growth was “inactive: 30.5, 31.3, 28.4, 53.1, 59.2, 37.1 (2×), 39.8, 30.1 (2×), 38.8, 30.2 (2×), 33.8, 16.4, 35.1, 35.9, 43.8 (2×), 37.3, 44.5, 38.2, 44.6, 40.2, 37.4, 43.7, 43.3, 38.7, 37.8, 39.6, 32, 39.2, 33.5, 50.1, 12.8, 46.6, 41.1, 33, 46.8 (2×), 40.4, 41.7, 32.1, 40.6, 39.3, 49.7, 42.8, 42.1, 45 (2×), 46.2, 52.3, 56.4, 35.5, 47, 37, 42.7 (2×), 21.6, 25, 15.9, 28.3, 19.4, 15.7, 19.6, 31.7, 23.7, 24.7, 24.3% and active: 2.06%, -1.01%”.

Q: And the growth (SNB-75 CNS; runs of 2014)?
A: The growth was “inactive: 28.9, 31.9, 22.8, 17.3 (2×), 11, 14.5, 13.3, 18.8, 31.1, 23.2, 21.9, 24.7, 22.1, 19.7, 20.5, 19.8, 21.4, 17.5 (2×), 21.2, 25.7, 33.1, 36.5, 29.4, 29.7, 31.3, 29.2, 25.8, 32.1, 26.4, 17.9, 25.3, 18.4, 33.4, 29.8, 24.8, 20.2, 34.2 (2×), 28.5, 30.4 (2×), 33.6, 24, 11.2, 25.9, 36.1, 18.5, 17.8, 16.9, 26.9, 22.9, 23.5, 24.6, 23.8, 37.2, 22.5, 28 (2×), 32.4, 34.3, 30.2 (2×), 25.6, 35.7, 32.3, 41.9, 37, 52.7, 29.5, 42.1, 19.4, 44.1, 39.1, 46.1, 45%”.

Q: What about the growth (SNB-75 CNS; runs of 2015) of the same compound?
A: The growth was “inactive: 24.7, 24.6, 27.6 (2×), 23.3, 29.5, 30.1, 37, 33.2, 41.4, 43.8, 40.5 (2×), 24.3 (2×), 32, 46.7, 28 (2×), 38.5, 27.5, 22.3, 28.9 (2×), 46.4, 32.1, 30.2, 25.8, 28.5, 25.2, 27.7, 26.9, 31.1, 29.3, 27.3, 25, 31.4 (2×), 49.9, 48.6, 38.2, 28.8, 34.5, 32.3, 35.7, 35.1, 36.6, 29.4, 21.7, 19.4, 29.9, 26.7, 21.8, 15.3, 18.7, 47.9, 29.8, 33.8, 41.6, 36.8 (2×), 35.5, 36, 39.4, 47.4, 44.6, 37.7, 43.6, 45.3, 37.2, 36.5, 35, 25.9, 37.5, 38.7, 54.5, 54, 40.6, 33.3, 36.1, 30.8, 34.7% and active: 9.04%, -3.73%”.

Q: What about the growth (SNB-75 CNS; runs of 2016) of the same compound?
A: The growth was “inactive: 45.9, 36.5, 38.9, 48.2, 50.1, 31, 33.8, 32.5, 15 (2×), 20.8, 31.2, 31.7 (2×), 14.9, 20.4 (2×), 14.3, 15.4, 12.5, 18.4, 10.8, 18.2, 20, 27.1, 18, 32.4, 26, 27.4, 34.2, 26.2, 30.9, 31.4, 32, 29.8, 35.7, 27.7, 33.5, 35 (2×), 40.8 (2×), 32.1, 37.8, 28.8, 42.1, 42.8 (2×), 44, 39.2, 34.3, 39.9 (2×), 35.8, 30.5, 37.6, 41, 49.7, 41.7, 46.7, 38.7, 48, 44.9, 54.2, 27.6, 46, 46.6, 41.4, 49.4 (2×), 47.9, 56.3, 35.1, 37, 40.4, 46.8, 53.3, 48.1, 43.6, 23.4, 25.9, 44.7, 43.5, 36.6, 35.3, 47.5%”.

Q: What about the growth (SNB-75 CNS; runs of 2017) of the same compound?
A: Its growth is “inactive: 40.4, 40.3, 39.8, 40.8, 42.2, 37.6, 19.7, 21.7, 20.6, 26, 22.1, 32.9 (2×), 30.5, 31.6, 24.3, 24.2, 27.6, 30.8, 28.3, 38.3 (2×), 40.7, 40.2, 39.9, 25.7 (2×), 41.5 (4×), 43.8, 34.3, 38.4 (2×), 39.1, 33 (3×), 35.7, 29.1, 31.1, 25.4, 31.4, 29.4 (3×), 30.9, 38.9, 28.5, 26.7, 33.8 (2×), 33.9, 29.5, 41.3, 33.1, 29, 36.7, 42.1, 31, 22.3, 31.8, 25.8 (2×), 25, 37, 33.4, 18.4, 17.2, 28.6, 29.8 (2×), 28.2, 32, 34.7, 33.6%”.

From PubChem BioAssay (NCI)
